Experimental findings from paper doi:10.1101/2024.12.16.628790 (bioRxiv, 2024) are described below.

The data set concerns the molecule itself. Put plainly: MAS NMR.

B1: segmentally labeled full-length HSPB1 (S83C), made by split-intein splicing (natural protein)
chain: not shown
Consider B1, for which the binding result was “binds”.
